This is one part of the list. Further columns of the screen follow, without active or inactive calls.
Key:
Assay in all cases: Primary Screen for Target Class Profiling of Small Molecule Inhibitors of Methyltransferases
[1] = target: Glycine N-methyltransferase (Homo sapiens) (UniProt Q14749); settings: purified enzyme, MTase-Glo SAH luminescence; measured here: GNMT inhibition; at 40 µM; stronger effect = lower value
Summary of the method: (§1)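 Each enzyme was reacted with SAM and its substrate, with compounds tested once at 40 uM; SAH formed was read by MTase-Glo luminescence.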

[2] = target: Guanidinoacetate N-methyltransferase (Homo sapiens) (UniProt Q14353); settings: purified enzyme, MTase-Glo SAH luminescence; measured here: GAMT inhibition; at 40 µM; stronger effect = lower value
Summary of the method: as §1

[3] = target: Histamine N-methyltransferase (Homo sapiens) (UniProt P50135); settings: purified enzyme, MTase-Glo SAH luminescence; measured here: HNMT inhibition; at 40 µM; stronger effect = lower value
Summary of the method: as §1

[4] = target: Nicotinamide N-methyltransferase (Homo sapiens) (UniProt P40261); settings: purified enzyme, MTase-Glo SAH luminescence; measured here: NNMT inhibition; at 40 µM; stronger effect = lower value
Summary of the method: as §1

[5] = target: Phenylethanolamine N-methyltransferase (Homo sapiens) (UniProt P11086); settings: purified enzyme, MTase-Glo SAH luminescence; measured here: PNMT inhibition; at 40 µM; stronger effect = lower value
Summary of the method: as §1
On the % scale 0 is the no-effect control and ±100 the full control effect.

Compound	activity change, negative = inhibition [1] [%]	activity change, negative = inhibition [2] [%]	activity change, negative = inhibition [3] [%]	activity change, negative = inhibition [4] [%]	activity change, negative = inhibition [5] [%]
COc1ccccc1OC1(C(=O)O)CCN(C(=O)CC2CC2)CC1	-3.67	-5.87	-3.26	-4.71	0.44
O[Si](CCCN1CCCCC1)(c1ccc(F)cc1)C1CCCCC1 (stereo not given)	3.68	11.8	0.085	-6.92	7.58
COCC1CN(C2CCC2)CC12CCN(C(=O)c1ccnn1C)CC2 (stereo not given)	-3.38	-3.52	-7.91	-5.77	1.2
CN(C)C(=O)N1CCC(c2nc(C3CCOC3)n[nH]2)CC1 (stereo not given)	-3.89	-9.15	-2.12	-10.4	-7.58
Cn1c(=O)n(C)c2cc(S(=O)(=O)NC3CC3)ccc21	12	0	7.44	1.97	3.57
CC(C)CCN1CCC(N2CCN(C(=O)c3ccc(Br)o3)CC2)C1=O (stereo not given)	-5.5	-5.76	-1.75	-9.89	-5.45
NC1(C(=O)NC(CCO)c2ccc(Cl)cc2)CCN(c2ncnc3[nH]ccc23)CC1 (stereo not given)	-3.07	–	5.03	–	–
COc1cccc(CN2CCCC(c3nc(-c4cccnc4)no3)CCNC(=O)CC2)n1 (stereo not given)	-5.66	-3.36	-2.48	-8.4	0.428
CCc1noc([C@@H]2CC(F)(F)CN2C(=O)Cc2cccnc2)n1	-0.603	-4.69	2.27	-2.29	-1
CCCn1c(=O)c2ccc(C(=O)NC3CCCCC3)cc2n2c(=O)n(CC(=O)c3ccccc3)nc12	-1.7	-3.12	0.224	-6.24	-4.96
CCOC(=O)c1cc2n(n1)CC(C)(C(=O)NC1CCCC1)N(c1ccc(F)cc1C)C2=O (stereo not given)	7.52	0	8.33	2.04	3.91
O=C(O)CCc1conc1-c1ccc(F)cc1	-1.11	-6.78	-0.757	1.48	0.29
CCc1cc2c(cc3n2CC(C)(C(=O)NC2CCCCCC2)N(C2CCCCC2)C3=O)s1 (stereo not given)	-1.63	4.55	-1.28	-3.92	-6.29
CN(C)c1ccc(C(=O)N[C@H]2C[C@H]3C(=O)NC[C@@H](CCC(=O)N4CCc5ccccc54)N3C2)cc1	-10.5	-4.06	-3.88	-12.9	-6.26
O=C1CO[C@H]2CN(c3ncccn3)C[C@H]2N1CC1CCCCC1	-12.5	-10	-5.58	-25.1	-19.7
Cc1ccc(C)c(N2CCN(C(=O)CCc3nnc4n(Cc5ccccc5)c(=O)c5ccccc5n34)CC2)c1	1.08	-0.291	-2.02	-0.95	-4.01
CC1(C(=O)NC2CCCC2)Cn2c(ccc2-c2ccccc2)C(=O)N1CCCc1ccccc1 (stereo not given)	-5.33	-0.958	-2.87	-1.02	-1.9
COc1ccc(-c2cc3n(n2)CC(C)(C(=O)NCc2ccccc2OC)N(c2ccc(Cl)cc2)C3=O)cc1 (stereo not given)	3.38	0	5.62	0.573	-0.374
COc1cccc(NS(=O)(=O)c2ccc3c(c2)N(C)C(=O)CC(=O)N3C)c1	4.59	2.96	9.06	9.52	2.08

Compound	activity change, negative = inhibition [1] [%]	activity change, negative = inhibition [2] [%]	activity change, negative = inhibition [3] [%]	activity change, negative = inhibition [4] [%]	activity change, negative = inhibition [5] [%]
O=C1CC2(CCCC2)[C@H](O)C(=O)N1CCCCN1CCN(c2ncccn2)CC1	-5.08	-14	-2.22	-21.4	-8.37
CC(C)Cn1c(=O)c2ccccc2n2c(=O)n(CC(=O)Nc3ccc(F)cc3)nc12	-4.15	2.58	1.55	-9.06	-5.09
O=C(Nc1ccc(Oc2cccnc2)cc1)C1CCN(CCCc2ccccc2)CC1	-3.46	2.17	-16.5	-16.4	-2.69
CCCn1ncc(C(=O)NCC2(O)CCCNC2)c1C (stereo not given)	-6.49	-10.9	-5.92	-16.2	-12.1
Cc1ccc(C(=O)N2C[C@@H](CN3CCOCC3)[C@@H](CO)C2)cc1O	1.14	2.81	2.41	-4.39	10.3
CCOc1ccc(CN2C(=O)c3c(C(=O)OC)ncn3CC2(C)C(=O)NC2CCCCCC2)cc1 (stereo not given)	7.6	0.844	7.37	2.68	6.05
CCCCN1C(=O)c2cc(C(=O)Nc3ccccc3Br)nn2CC1(C)C(=O)NC1CCCC1 (stereo not given)	4.67	0	-10.5	1.37	8.49
Cc1ccc(S(=O)(=O)N(C)C2CCc3ccccc32)cc1 (stereo not given)	-2.67	2.23	-0.297	-14.1	-0.933
Cc1ccc(-c2ncccc2CNS(=O)(=O)c2cc(F)ccc2C)cc1	-2.29	6.51	-5.11	-6.66	-3.02
NC(=O)c1nnn([C@H]2CCN3C(=O)[C@@H](Cc4ccccc4)NC(=O)[C@@H]3C2)c1C(N)=O	-0.953	-2.11	0.617	-7.92	-0.72
COCc1nnc2n1CCC(NC(=O)Cn1nc(C(F)(F)F)cc1C)CC2 (stereo not given)	1.71	-1.5	1.35	2.38	14.2
NC1CCC(Nc2cc(-c3cccc(NCc4cccc(F)c4)n3)c(Cl)cn2)CC1 (stereo not given)	-32.4	12.4	3.61	-39.7	-4.7
COCCN1C(=O)c2cc(-c3ccccc3)nn2CC1(C)C(=O)NCc1ccccc1 (stereo not given)	2.87	5.06	8.76	4.7	1.58
O=C(OC[C@H]1O[C@H](O[C@]2(CO)O[C@H](CO)[C@@H](O)[C@@H]2O)[C@H](O)[C@@H](O)[C@@H]1O)c1ccccc1	3.84	8.64	4.9	-4.77	5.73
COc1cc2c(cc1OC)CC(=O)N(CCCNC[C@H]1Cc3cc(OC)c(OC)cc31)CC2	-4.92	-2.87	-2.8	-11.5	1.6
CC[C@H]1OC(=O)[C@H](C)[C@@H](O[C@H]2C[C@@](C)(OC)[C@@H](O)[C@H](C)O2)[C@H](C)[C@@H](O[C@@H]2O[C@H](C)C[C@H](N(C)C)[C@H]2O)C(C)(O)C[C@@H](C)/C(=N\OCOCCOC)[C@H](C)[C@@H](O)[C@]1(C)O (stereo not given in full)	–	13.6	–	-3.74	4.33
Cc1csc(N(C(=O)CSc2ccc(-c3ccccc3)nn2)C2CC2)n1	-6.88	-5.55	-8.17	-21.8	-11.7
COc1cccc(CNC(=O)CSc2nnc3n(CC(C)C)c(=O)c4ccccc4n23)c1	7.24	0	10.9	9.32	6.64
COc1ccccc1OCCNCC(O)COc1cccc2[nH]c3ccccc3c12 (stereo not given)	0.121	16.3	-1.43	-7.32	-10.9
